Source: paper PMC12136788
The list shows a part of the results.

T1: UNK ZnF1-3 (human, UniProt Q9C0B0 31-174)
T1 sequence: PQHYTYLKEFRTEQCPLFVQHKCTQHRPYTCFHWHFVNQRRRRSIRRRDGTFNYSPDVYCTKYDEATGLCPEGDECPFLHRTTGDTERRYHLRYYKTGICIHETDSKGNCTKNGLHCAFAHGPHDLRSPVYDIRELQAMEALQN

B1: chr6:108246082:108246083:-_ENSG00000025796_ENST00000369002|hu_hu|motif|central (ssRNA)
RNA: GGGAGUUCUACAGUCCGACGAUCUGUUUUGGAAACUUUAUAUGCAAGGAAUAAGAACAAUGCCCAUCCUGCAAGCAGAACGGUUUUCUUUACUGUAGGAAUAAUAUUUGGCUGGGGUUUUAAUAACCGUAAACGAUACCACAUCAACAGAGGAUUGAGCAUCA
B2: chr1:163117127:163117128:-_ENSG00000143248_ENST00000313961|hu_mus|hu_hu_hu_mus_False|18_108 (ssRNA)
RNA: GGGAGUUCUACAGUCCGACGAUCUGCGGGUUAUUAUGUAACUCAACUCACAGGGCAACUUUUGGAAGCCUGACCAGAUGACUACUUGAUUAGCUCCUUAUAAAAUUCAGAGCGCACAAAGCGAGGCAGAGAAUCCUUCUCCAUCAACAGAGGAUUGAGCAUCA
B3: 105138127_105138247_1016_CDS_ENSG00000148835_ENST00000369839|human|control|control (ssRNA)
RNA: GGGAGUUCUACAGUCCGACGAUCCUGUUGCUUACUACGCGGCAUCCCAUCAAAGAUGUCAAUGUAGAGGUGCUCCUGAACUAUGUUCCAUAUCUGAUUGUUCUGUUUCUCCUGAAGAUGCCUCUUCAAGAGUUGGUACGAGUCCAACAGAGGAUUGAGCAUCA
B4: chr8:74858975:74858976:-_ENSG00000154582_ENST00000284811|hu_mus|hu_hu_hu_mus_True|18_38 (ssRNA)
RNA: GGGAGUUCUACAGUCCGACGAUCGACCUUGUAGGUAAAAUACAUGCACACUUUUGAUAGCACAUGUGAGGGGAUCUCUCUAAAAUUGACCUCGUUGGUUUCGUUCUCAGCAAACUGACCUGGGCCACUCAACAUAGCCUUUAUCAACAGAGGAUUGAGCAUCA
B5: chr2:156904787:156904788:-_ENSMUSG00000055485_ENSMUST00000069098|mus_hu|FALSE|FALSE (ssRNA)
RNA: GGGAGUUCUACAGUCCGACGAUCCCGGCCGCUGGGGCUGCGGCUGCUCUCGGCCCACCUCGGCCCCGACACCGCGUCCCCGUCCCAAGCCCCGCCGCGCGGUCUCUCCGCUGCUCUGGGCUCGGAGAGUGCGGCCCGACCGCCCAACAGAGGAUUGAGCAUCA
B6: chr18:21054979:21054980:+_ENSG00000101782_ENST00000339486|hu_hu|FALSE|FALSE (ssRNA)
RNA: GGGAGUUCUACAGUCCGACGAUCCUUUACUUCUUUUAAUUUAGGGGCUGGAACUUGAUCAUGGCCAAUAAAAGACAUAACUAAAAUGUGUUUCUUCAGUAGUACAACUGUUGGACAAGGAAUUCCAGCUCUCUGCAUUCUUGCCAACAGAGGAUUGAGCAUCA
B7: chr10:122565287:122565288:-_ENSMUSG00000020124_ENSMUST00000020334|mus_mus|motif|central (ssRNA)
RNA: GGGAGUUCUACAGUCCGACGAUCAAUUUUGGGCACAAUAACUUUGUAUUGCAUAGGUUUAGCAAGUGGAUCCAUUCGGACGGAAUAAACUUCCAAGCUACGUUCUUUUUUCAUAGGCAAUGGAAGAGUCAAGUAACAGAAAGGCAACAGAGGAUUGAGCAUCA
B8: chr3:10015032:10015033:+_ENSMUSG00000027533_ENSMUST00000029046|mus_mus|mus_mus_mus_hu_True|68_108 (ssRNA)
RNA: GGGAGUUCUACAGUCCGACGAUCGUUGUUGCCAUCACAAGUGAUGAUACAAUCUGGCUUGGCCAUUGCAGCCAUCUUUCGCAAAGCUAUUCCCACUCCUAGCUCCUUCAUGUAUUCAUCAAAGCCUUUGCUGUCCACCAGGCGCAACAGAGGAUUGAGCAUCA
B9: chr5:37680062:37680063:+_ENSMUSG00000029121_ENSMUST00000031004|mus_hu|mus_mus_mus_hu_False|8_98 (ssRNA)
RNA: GGGAGUUCUACAGUCCGACGAUCUUUGGGUGUAGCUGGCACCUCGUACACAGGACCGUCAUACAUGCCCCUGGAAACCCCUUGCAAUCCAAAAACCUUAUUCCUGAUUUUGACGCGCUGGUACAGGUGCUCUGGGAACGCCUUCAACAGAGGAUUGAGCAUCA
B10: chr5:151042278:151042279:-_ENSG00000113140_ENST00000231061|hu_mus|FALSE|FALSE (ssRNA)
RNA: GGGAGUUCUACAGUCCGACGAUCAUGACAGCCAUCUAGAUGUGAAAAAAAUCAAACCAAUUCACCAGUCUCACUUCCUCUACGUUACAACCUUUUCUGUCUUCCUCUUGAGUCUCACUUUCCUGAAACAGCCUCCCAGUGCCUCAACAGAGGAUUGAGCAUCA
B11: chr1:55135153:55135154:-_ENSMUSG00000025980_ENSMUST00000027123|mus_mus|FALSE|FALSE (ssRNA)
RNA: GGGAGUUCUACAGUCCGACGAUCUUCAUUGAUAAGGGCAAAGCACUACUCUAGGAGUUAGAACAUGCCGCCUCCCAUACCCCCUCCCAUGCCACCCAUUGCACCCAUUCCAGGGUCCUUCUCUUCUUUAGGAAUUUCUGUCACCAACAGAGGAUUGAGCAUCA
B12: chr6:52962840:52962841:+_ENSG00000112146_ENST00000323557|hu_mus|FALSE|FALSE (ssRNA)
RNA: GGGAGUUCUACAGUCCGACGAUCACAACAAAAGUGUCCUUAACAACUUCUAAUUUCAAAACAAAGUACCCCAGGAAUCAACUAUCCUUUUAAAUAAAAAAAAUAAUUUAUACUCUUCUUAAAGGAAUUCCAACAACUUAAAGUCAACAGAGGAUUGAGCAUCA
B13: chr9:95040541:95040542:-_ENSG00000196305_ENST00000443024|hu_mus|FALSE|FALSE (ssRNA)
RNA: GGGAGUUCUACAGUCCGACGAUCAAGUAUCUCAUAGUCGCUCUCUUGCUUAUAGAGGGCCGAUAAUCUGGCUUCCGUUAAGAUGAAUAAUUUUCCCCUGGCCACAUCUUUGAUCUUCACAUACUGUAUUUCUGGAUUGACGCACAACAGAGGAUUGAGCAUCA
B14: 89056248_89057110_1325_CDS_ENSMUSG00000029291_ENSMUST00000031229|mouse|control|control (ssRNA)
RNA: GGGAGUUCUACAGUCCGACGAUCAUGUCUGUUGAGUUCUUCUACAUAGUUCUUCUGGUCUAGGAUCGCAGUAAUCUGUCCAUCCCCUUCACUACCUUUACUACUGUUUCCAUCUUUGAGAUACAUCGAAAAAUCUAUAACUCCCAACAGAGGAUUGAGCAUCA
B15: chr4:175231952:175231953:+_ENSG00000164118_ENST00000503780|hu_mus|motif|central (ssRNA)
RNA: GGGAGUUCUACAGUCCGACGAUCGGGUACAAAGUCCACAUCACUAAUUGACUCACAGUCUUGACUUGCCACAUUACGCUCGGCAGAUUCACUCUUUUUGGACAACAGCAUCUCCGUUUCUAGAAGAGUGACACGACUUAGAAGCAACAGAGGAUUGAGCAUCA
B16: chr4:41496568:41496569:+_ENSG00000064042_ENST00000508501|hu_hu|motif|central (ssRNA)
RNA: GGGAGUUCUACAGUCCGACGAUCUUUAACAAGUCCUGGCUUUAUAGCAUUCAGCAACUCGCAGAGGAGGAUUCCAUUUUCGGAACCUGUCCGAAAAUCUUUAUCACCAAAACUUCUGCCAGUUACUUGCUCAAUCCACUUCUGCAACAGAGGAUUGAGCAUCA
B17: chrX:153712385:153712386:-_ENSG00000102178_ENST00000369660|hu_hu|FALSE|FALSE (ssRNA)
RNA: GGGAGUUCUACAGUCCGACGAUCUUAAACAAAUUGCCUUUAUUGUUAAACCAAUGAUUGGAUAUCAGAAACAGCCUAGCUAAUAUAGCUCCUUUUGGAUAAAAGUAGAAGCCUCACAUUCACCUUUAAUGUUAUUUCACUUUUCAACAGAGGAUUGAGCAUCA
B18: chr11:87793471:87793472:-_ENSMUSG00000020483_ENSMUST00000020775|mus_mus|mus_mus_mus_hu_False|18_88 (ssRNA)
RNA: GGGAGUUCUACAGUCCGACGAUCUGGACUUGAAAAUAAAAGAAUAAGCUAGAUUUCCCACCCCCCCACAUUGUCAACCCUACACGAGAGUUUUGAAGGCGACUCAUGAAAAUCAGCCUCAAUUGGCGCAAUGACCACCCCACCCAACAGAGGAUUGAGCAUCA
B19: chr2:198351390:198351391:-_ENSG00000144381_ENST00000345042|hu_hu|hu_hu_hu_mus_False|1_58 (ssRNA)
RNA: GGGAGUUCUACAGUCCGACGAUCUCAUUCCCACCCUCCACAGAAAGGCUGCUUCUGAACUCUCAUGUGGUGACACAGCACUAAAAUCCUGAUGCUCACAGAACAGUAGAGAUGCCUCAGUGAUUUAAGUUGAAAGCAGCAGUACAACAGAGGAUUGAGCAUCA
B20: chr14:28255117:28255118:+_ENSMUSG00000040651_ENSMUST00000022450|mus_mus|FALSE|FALSE (ssRNA)
RNA: GGGAGUUCUACAGUCCGACGAUCAACAACAUCGCCUACUGCCCCAGCCUCCAAAGGAUUAGCCUGUAAGAGAUCUGCAUACCUACAAAGAUAGAUACCCAUGGAAGGACUGCCAAGAACUGUUAUUUUGGAUUGGCCCACCUGCAACAGAGGAUUGAGCAUCA
B21: chr2:131829505:131829506:-_ENSG00000152102_ENST00000409185|hu_hu|FALSE|FALSE (ssRNA)
RNA: GGGAGUUCUACAGUCCGACGAUCUCCAGGAUACAUGUUAGGAGAAUAGGCAGGAGCUGCUGCUGCAUAGCCCAUGGGAAAACCAGCUGGAUAACCAAUUCCUUUGGCAUUUGCAUAGGGAACCCCAGAAGAUCCAGGACUAUACAACAGAGGAUUGAGCAUCA
B22: chr11:62363965:62363966:-_ENSG00000149480_ENST00000278823|perfect_dup|motif|central (ssRNA)
RNA: GGGAGUUCUACAGUCCGACGAUCCAAUCUUUUCUGCUGAAUAUACCGGUCUGUGGUUUUCCACAUGUAAUAAAACUGGACGGUGCUUGCAAGUGACUUCCAGGGUAGAAAGUCCUGGCGGAUAUCAUUGAAAUCCUUCCCGUACAACAGAGGAUUGAGCAUCA

target: T1, UNK ZnF1-3; experiment: nsRBNS (natural sequence RNA bind-n-seq); RBNS binding buffer (assumed for nsRBNS): 25 mM Tris pH 7.5, 150 mM KCl, 3 mM MgCl2, 0.01% Triton X-100, 500 ug/ml BSA, 20 U/ml SUPERase-In, 4 C; UNK is unkempt and MSI1 is Musashi-1; names of the RNAs are library labels; protein concentration not given here; high values mean tight binding

Binder | binding signal
B1 | 0.611 enrichment R
B2 | 0.904 enrichment R
B3 | 0.455 enrichment R
B4 | 0.547 enrichment R
B5 | 1.68 enrichment R
B6 | 1 enrichment R
B7 | 1.18 enrichment R
B8 | 0.736 enrichment R
B9 | 0.739 enrichment R
B10 | 1.26 enrichment R
B11 | 1.01 enrichment R
B12 | 2.76 enrichment R
B13 | 0.904 enrichment R
B14 | 0.736 enrichment R
B15 | 0.979 enrichment R
B16 | 0.437 enrichment R
B17 | 0.826 enrichment R
B18 | 2 enrichment R
B19 | 1.27 enrichment R
B20 | 1.86 enrichment R
B21 | 1.19 enrichment R
B22 | 1.31 enrichment R
